B1: Caulobacter ParB omega fusion; a variant is named by its letters at X, in order, B8GW30 (parent)
chain: MESVVVGEPGMSEGRRGLGRGLSALLGEVDAAPAQAPGEQLGGSREAPIEILQRNPDQPRRTFREEDLEDLSNSIREKGVLQPILVRPSPDTAGEYQIVAGERAWRAAQRAGLKTVPIMVRELDDLAVLEIGIIENVQRADLNVLEEALSYKVLMEKFERTQENIAQTIGKSXSHVANXMRLLXLPDEVQSYLVSGELTAXHARAIAAAADPVALAKQIIEGGLSVRETEALARKAPNLSAGKSKGGRPPRVKDTDTQALESDLSSVLGLDVSIDHRGSTGTLTITYATLEQLDDLCNRLTRGI

The full ranking holds about 81,000 sequences; the median of “one-hybrid fitness for binding parS DNA” is about -0.17, and the highest 2% start at about 0.51. The list shows a part of the results.

Variants of B1 are the subject of the assay. The assay is described as follows: one-hybrid fitness for binding parS DNA (scaled: cognate 1, non-cognate 0); higher = stronger binding. Conditions: with parS DNA site. Summed up: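 Caulobacter ParB libraries with four specificity codons randomised were screened by bacterial one-hybrid selection in the E. coli USO strain, using a HIS3 reporter whose site lies 19 bp from the promoter. Selection ran for 48 hours at 37°C on M9 lacking histidine, with 0.1 mM IPTG and 5 mM 3-AT. Plasmids were Illumina-sequenced before and after selection, three replicate libraries were pooled, and variants with under 10 reads were dropped. Fitness is the log change in each variant's read ratio to wild type, rescaled against the cognate and non-cognate sites.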
Regarding SPHV, the “one-hybrid fitness for binding parS DNA” value was at most 0.2.

In the case of GLSG, the “one-hybrid fitness for binding parS DNA” value was at most 0.2.

As to FKRV, the “one-hybrid fitness for binding parS DNA” value was at most 0.2.

As to KMKG, the “one-hybrid fitness for binding parS DNA” value is at most 0.2.

ARSH: the “one-hybrid fitness for binding parS DNA” value was at most 0.2.

For the variant QRVS, the “one-hybrid fitness for binding parS DNA” value was at most 0.2.

For DGLT, the “one-hybrid fitness for binding parS DNA” value was at most 0.2.

Regarding CACV, the “one-hybrid fitness for binding parS DNA” value is at most 0.2.

With PMEA, the “one-hybrid fitness for binding parS DNA” value is at most 0.2.

In the case of QKVS, the “one-hybrid fitness for binding parS DNA” value was at most 0.2.

Regarding TESC, the “one-hybrid fitness for binding parS DNA” value is at most 0.2.

As to NKYS, the “one-hybrid fitness for binding parS DNA” value was at most 0.2.

Regarding RTSQ, the “one-hybrid fitness for binding parS DNA” value was at most 0.2.

As for SLTC, the “one-hybrid fitness for binding parS DNA” value is at most 0.2.

VKKY: the “one-hybrid fitness for binding parS DNA” value was at most 0.2.

For the variant HNKA, the “one-hybrid fitness for binding parS DNA” value was at most 0.2.

Turning to LLHT, the “one-hybrid fitness for binding parS DNA” value is at most 0.2.

In the case of RRET, the “one-hybrid fitness for binding parS DNA” value was determined as 0.674.

Regarding AQRM, the “one-hybrid fitness for binding parS DNA” value is at most 0.2.

For the variant THPF, the “one-hybrid fitness for binding parS DNA” value was at most 0.2.

As for DQSK, the “one-hybrid fitness for binding parS DNA” value is at most 0.2.

GKWN: the “one-hybrid fitness for binding parS DNA” value was at most 0.2.

As for HVYY, the “one-hybrid fitness for binding parS DNA” value is at most 0.2.

Turning to DQKI, the “one-hybrid fitness for binding parS DNA” value is at most 0.2.

On to IRAG, for which the “one-hybrid fitness for binding parS DNA” value is at most 0.2.

On to APEV, for which the “one-hybrid fitness for binding parS DNA” value is at most 0.2.

With WTSY, the “one-hybrid fitness for binding parS DNA” value is at most 0.2.

As to FMNL, the “one-hybrid fitness for binding parS DNA” value is at most 0.2.

Consider SRRA, for which the “one-hybrid fitness for binding parS DNA” value was at most 0.2.

With AIHT, the “one-hybrid fitness for binding parS DNA” value was at most 0.2.

On to EAHM, for which the “one-hybrid fitness for binding parS DNA” value was at most 0.2.

Consider RWDV, for which the “one-hybrid fitness for binding parS DNA” value was at most 0.2.

Turning to KKTQ, the “one-hybrid fitness for binding parS DNA” value is at most 0.2.

Take GSRT: the “one-hybrid fitness for binding parS DNA” value was at most 0.2.

Regarding SRYY, the “one-hybrid fitness for binding parS DNA” value is at most 0.2.

For the variant HTMW, the “one-hybrid fitness for binding parS DNA” value is at most 0.2.

In the case of LYNT, the “one-hybrid fitness for binding parS DNA” value is at most 0.2.

For SCVS, the “one-hybrid fitness for binding parS DNA” value is at most 0.2.

As for IDMR, the “one-hybrid fitness for binding parS DNA” value was at most 0.2.

For the variant QIFI, the “one-hybrid fitness for binding parS DNA” value is at most 0.2.

In the case of DHNT, the “one-hybrid fitness for binding parS DNA” value amounted to 0.279.

As for LFHR, the “one-hybrid fitness for binding parS DNA” value was at most 0.2.

As for HQAS, the “one-hybrid fitness for binding parS DNA” value is at most 0.2.

On to QKIW, for which the “one-hybrid fitness for binding parS DNA” value is at most 0.2.

In the case of YSMG, the “one-hybrid fitness for binding parS DNA” value is at most 0.2.

As for KRYY, the “one-hybrid fitness for binding parS DNA” value is at most 0.2.

For PKVV, the “one-hybrid fitness for binding parS DNA” value was at most 0.2.

Consider VKWS, for which the “one-hybrid fitness for binding parS DNA” value was at most 0.2.

Take KVRV: the “one-hybrid fitness for binding parS DNA” value was at most 0.2.

With WFED, the “one-hybrid fitness for binding parS DNA” value was at most 0.2.

For the variant KLLT, the “one-hybrid fitness for binding parS DNA” value is at most 0.2.

On to SIMW, for which the “one-hybrid fitness for binding parS DNA” value is at most 0.2.

Take QEGR: the “one-hybrid fitness for binding parS DNA” value was at most 0.2.

Take AGCG: the “one-hybrid fitness for binding parS DNA” value was at most 0.2.

Take QFKK: the “one-hybrid fitness for binding parS DNA” value was at most 0.2.

Take RENY: the “one-hybrid fitness for binding parS DNA” value was at most 0.2.

For the variant DGPV, the “one-hybrid fitness for binding parS DNA” value was at most 0.2.

As for EAKD, the “one-hybrid fitness for binding parS DNA” value was at most 0.2.

Consider PRMR, for which the “one-hybrid fitness for binding parS DNA” value was at most 0.2.

With RHEA, the “one-hybrid fitness for binding parS DNA” value is 0.512.

On to RSYT, for which the “one-hybrid fitness for binding parS DNA” value was 0.846.

On to ANSP, for which the “one-hybrid fitness for binding parS DNA” value is at most 0.2.

Take HPDR: the “one-hybrid fitness for binding parS DNA” value is at most 0.2.

For the variant EIPG, the “one-hybrid fitness for binding parS DNA” value is at most 0.2.

On to STLS, for which the “one-hybrid fitness for binding parS DNA” value was at most 0.2.

YKFR: the “one-hybrid fitness for binding parS DNA” value is at most 0.2.

In the case of TPLI, the “one-hybrid fitness for binding parS DNA” value was at most 0.2.

Turning to MRDI, the “one-hybrid fitness for binding parS DNA” value was at most 0.2.

As to PYHD, the “one-hybrid fitness for binding parS DNA” value was at most 0.2.

As for RIKE, the “one-hybrid fitness for binding parS DNA” value is at most 0.2.

Consider NECS, for which the “one-hybrid fitness for binding parS DNA” value was at most 0.2.

In the case of FYTC, the “one-hybrid fitness for binding parS DNA” value was at most 0.2.

In the case of AKEC, the “one-hybrid fitness for binding parS DNA” value is at most 0.2.

Turning to PWNC, the “one-hybrid fitness for binding parS DNA” value was at most 0.2.

In the case of WRSE, the “one-hybrid fitness for binding parS DNA” value was at most 0.2.

Consider FLED, for which the “one-hybrid fitness for binding parS DNA” value is at most 0.2.

On to AICR, for which the “one-hybrid fitness for binding parS DNA” value was at most 0.2.

Turning to QHMR, the “one-hybrid fitness for binding parS DNA” value was at most 0.2.

For YQPF, the “one-hybrid fitness for binding parS DNA” value is at most 0.2.

CCEE: the “one-hybrid fitness for binding parS DNA” value is at most 0.2.

Regarding WANT, the “one-hybrid fitness for binding parS DNA” value is at most 0.2.

As for WHMC, the “one-hybrid fitness for binding parS DNA” value is at most 0.2.

Regarding SFDG, the “one-hybrid fitness for binding parS DNA” value is at most 0.2.

In the case of INMT, the “one-hybrid fitness for binding parS DNA” value was at most 0.2.

Regarding NHPG, the “one-hybrid fitness for binding parS DNA” value was at most 0.2.

With AANA, the “one-hybrid fitness for binding parS DNA” value is at most 0.2.

Turning to ALER, the “one-hybrid fitness for binding parS DNA” value was at most 0.2.

On to QTRQ, for which the “one-hybrid fitness for binding parS DNA” value was at most 0.2.

With KMLT, the “one-hybrid fitness for binding parS DNA” value is at most 0.2.

For PKTC, the “one-hybrid fitness for binding parS DNA” value was at most 0.2.

In the case of AKIT, the “one-hybrid fitness for binding parS DNA” value was at most 0.2.

Turning to AEAW, the “one-hybrid fitness for binding parS DNA” value is at most 0.2.

As for DSNS, the “one-hybrid fitness for binding parS DNA” value was at most 0.2.

KADD: the “one-hybrid fitness for binding parS DNA” value was at most 0.2.

With ILCR, the “one-hybrid fitness for binding parS DNA” value was at most 0.2.

In the case of WHIR, the “one-hybrid fitness for binding parS DNA” value was at most 0.2.

In the case of GVPW, the “one-hybrid fitness for binding parS DNA” value was at most 0.2.

On to IGWR, for which the “one-hybrid fitness for binding parS DNA” value is at most 0.2.

For the variant RYMQ, the “one-hybrid fitness for binding parS DNA” value was at most 0.2.

TIWL: the “one-hybrid fitness for binding parS DNA” value is at most 0.2.

For RMAW, the “one-hybrid fitness for binding parS DNA” value was determined as 0.235.

As for LMIS, the “one-hybrid fitness for binding parS DNA” value is at most 0.2.

For the variant CVSC, the “one-hybrid fitness for binding parS DNA” value is at most 0.2.

As for QWRM, the “one-hybrid fitness for binding parS DNA” value is at most 0.2.

Consider MHYV, for which the “one-hybrid fitness for binding parS DNA” value was at most 0.2.

Turning to TKKH, the “one-hybrid fitness for binding parS DNA” value was at most 0.2.

As for STVR, the “one-hybrid fitness for binding parS DNA” value is at most 0.2.

On to YHHS, for which the “one-hybrid fitness for binding parS DNA” value was at most 0.2.

As for HMTS, the “one-hybrid fitness for binding parS DNA” value was at most 0.2.

In the case of REAW, the “one-hybrid fitness for binding parS DNA” value is at most 0.2.

As to YIFD, the “one-hybrid fitness for binding parS DNA” value was at most 0.2.

Turning to IYST, the “one-hybrid fitness for binding parS DNA” value is at most 0.2.

Regarding YVPS, the “one-hybrid fitness for binding parS DNA” value was at most 0.2.

Regarding DHVT, the “one-hybrid fitness for binding parS DNA” value was at most 0.2.

Turning to EGTW, the “one-hybrid fitness for binding parS DNA” value is at most 0.2.

For LMQL, the “one-hybrid fitness for binding parS DNA” value is at most 0.2.

PHRH: the “one-hybrid fitness for binding parS DNA” value is at most 0.2.

On to EVDL, for which the “one-hybrid fitness for binding parS DNA” value was at most 0.2.

As to STYC, the “one-hybrid fitness for binding parS DNA” value is at most 0.2.

As to NIKH, the “one-hybrid fitness for binding parS DNA” value is at most 0.2.

LVEG: the “one-hybrid fitness for binding parS DNA” value was at most 0.2.

For the variant CVYS, the “one-hybrid fitness for binding parS DNA” value was at most 0.2.

In the case of ERSN, the “one-hybrid fitness for binding parS DNA” value is at most 0.2.

As to LGLK, the “one-hybrid fitness for binding parS DNA” value is at most 0.2.

As to PQVS, the “one-hybrid fitness for binding parS DNA” value is at most 0.2.

As to QSSW, the “one-hybrid fitness for binding parS DNA” value is at most 0.2.

Take CPMG: the “one-hybrid fitness for binding parS DNA” value was at most 0.2.

As to VSTG, the “one-hybrid fitness for binding parS DNA” value was at most 0.2.

Turning to QAMH, the “one-hybrid fitness for binding parS DNA” value is at most 0.2.

As for AYGT, the “one-hybrid fitness for binding parS DNA” value was at most 0.2.

In the case of TMYG, the “one-hybrid fitness for binding parS DNA” value is at most 0.2.

For APND, the “one-hybrid fitness for binding parS DNA” value was at most 0.2.

As for GRNY, the “one-hybrid fitness for binding parS DNA” value is at most 0.2.

As to LMKC, the “one-hybrid fitness for binding parS DNA” value was at most 0.2.

For SMIV, the “one-hybrid fitness for binding parS DNA” value was at most 0.2.

As for CNHG, the “one-hybrid fitness for binding parS DNA” value is at most 0.2.

On to ARCD, for which the “one-hybrid fitness for binding parS DNA” value is at most 0.2.

Turning to TALP, the “one-hybrid fitness for binding parS DNA” value is at most 0.2.

As for QTVP, the “one-hybrid fitness for binding parS DNA” value was at most 0.2.

Consider PAPT, for which the “one-hybrid fitness for binding parS DNA” value was at most 0.2.

Take GAKS: the “one-hybrid fitness for binding parS DNA” value was at most 0.2.

As to QLYR, the “one-hybrid fitness for binding parS DNA” value was at most 0.2.

Regarding LYSH, the “one-hybrid fitness for binding parS DNA” value is at most 0.2.

In the case of SMNT, the “one-hybrid fitness for binding parS DNA” value was at most 0.2.

Regarding KTQC, the “one-hybrid fitness for binding parS DNA” value is at most 0.2.

As to CGAA, the “one-hybrid fitness for binding parS DNA” value was at most 0.2.

As to APGN, the “one-hybrid fitness for binding parS DNA” value is at most 0.2.

YNGV: the “one-hybrid fitness for binding parS DNA” value was at most 0.2.

KQVS: the “one-hybrid fitness for binding parS DNA” value was at most 0.2.

Turning to KFWG, the “one-hybrid fitness for binding parS DNA” value was at most 0.2.

Take CTGL: the “one-hybrid fitness for binding parS DNA” value was at most 0.2.

Turning to ICRG, the “one-hybrid fitness for binding parS DNA” value was at most 0.2.

Turning to VRTS, the “one-hybrid fitness for binding parS DNA” value was at most 0.2.

The record behind these values is a collection of fitness landscapes (doi:10.1016/j.celrep.2020.107928).
